According to the supplement of paper PMC4967469:
pIC50: −log10 of the molar value. Lines with a small IC50 respond at low doses; a limit (>, <) means that the fit lies beyond the doses tested. AUC, from the same fit, is the share of area under the viability curve across the 256-fold dose range; values near 1 show little effect. Any top dose called inferred comes from the curve model; the source does not state it. For some assays here: An entry number marks a drug with two screens in the source, which often give different values.

How the values were obtained:
Assay in all cases: Viability of human cancer cell lines after 72 h of drug (GDSC screen)
XMD8-85 = compound: COc1cc(N2CCN(C)CC2)ccc1Nc1ncc2c(n1)N(C)c1ccccc1C(=O)N2C [XMD8-85]; details: top dose 8 µM; top dose inferred
Method: (§1)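 Human cancer cell lines in 384-well plates, medium with 10% serum, drug for 72 h over a 256-fold dose range (nine 2-fold or five 4-fold steps up to the top dose). Adherent lines were fixed and stained with the nucleic acid dye Syto60, suspension lines read with resazurin; signal relative to control wells, capped at 0 and 100%. One two-parameter sigmoid per drug and line, fitted in a mixed model over all curves with the slope shared within a line.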

BMS-536924 = compound: Cc1cc(N2CCOCC2)cc2[nH]c(-c3c(NC[C@@H](O)c4cccc(Cl)c4)cc[nH]c3=O)nc12 [BMS-536924]
Method: as §1

SB-525334 = compound: Cc1cccc(-c2[nH]c(C(C)(C)C)nc2-c2ccc3nccnc3c2)n1 [SB-525334]; details: top dose 20 µM; top dose inferred
Method: as §1

VX-702 = compound: NC(=O)c1ccc(N(C(N)=O)c2c(F)cccc2F)nc1-c1ccc(F)cc1F [VX-702]; details: top dose 2 µM; top dose inferred
Method: as §1

CGP-082996 (CINK4) = compound: CCNc1cc(NC2CCC(O)CC2)nc(Nc2ccc3c(ccn3Cc3ccccc3)c2)n1 [CGP-082996 (CINK4)]; details: top dose 5.12 µM; top dose inferred
Method: as §1

BIRB 0796 = compound: Cc1ccc(-n2nc(C(C)(C)C)cc2NC(=O)Nc2ccc(OCCN3CCOCC3)c3ccccc23)cc1 [BIRB 0796]; details: top dose 10 µM; top dose inferred
Method: as §1

Shikonin = compound: CC(C)=CC[C@@H](O)C1=CC(=O)c2c(O)ccc(O)c2C1=O [Shikonin]; details: top dose 16 µM; top dose inferred
Method: as §1

Wee1 inhibitor 681640 = compound: O=C1NC(=O)c2c1c(-c1ccccc1Cl)cc1[nH]c3ccc(O)cc3c21 [Wee1 inhibitor 681640]; details: top dose 2 µM; top dose inferred
Method: as §1

HG-5-113-01 = compound: CNC(=O)c1ccc(Nc2cc(Nc3ccccc3S(=O)(=O)C(C)C)c3cc[nH]c3n2)nc1 [HG-5-113-01]; details: top dose 10 µM; top dose inferred
Method: as §1

Olaparib = compound: O=C(c1cc(Cc2n[nH]c(=O)c3ccccc23)ccc1F)N1CCN(C(=O)C2CC2)CC1 [Olaparib]
Method: as §1

A-770041 = compound: COc1cc(-c2nn([C@H]3CC[C@H](N4CCN(C(C)=O)CC4)CC3)c3ncnc(N)c23)ccc1NC(=O)c1cc2ccccc2n1C [A-770041]; details: top dose 5.12 µM; top dose inferred
Method: as §1

[1] = top dose 4 µM, screen: GDSC drug entry 1091, top dose inferred
[2] = top dose 5.12 µM, screen: GDSC drug entry 62
[3] = top dose 5 µM, screen: GDSC drug entry 1017, top dose inferred
[4] = top dose 10 µM, screen: GDSC drug entry 1495

Cell Line	AUC (XMD8-85)	pIC50 (XMD8-85)	AUC (BMS-536924; [1])	pIC50 (BMS-536924; [1])	AUC (BMS-536924; [2])	pIC50 (BMS-536924; [2])	AUC (SB-525334)	pIC50 (SB-525334)	AUC (VX-702)	pIC50 (VX-702)	AUC (CGP-082996 (CINK4))	pIC50 (CGP-082996 (CINK4))	AUC (BIRB 0796)	pIC50 (BIRB 0796)	AUC (Shikonin)	pIC50 (Shikonin)	AUC (Wee1 inhibitor 681640)	pIC50 (Wee1 inhibitor 681640)	AUC (HG-5-113-01)	pIC50 (HG-5-113-01)	AUC (Olaparib; [3])	pIC50 (Olaparib; [3])	AUC (Olaparib; [4])	pIC50 (Olaparib; [4])	AUC (A-770041)	pIC50 (A-770041)
COLO-684 (endometrium, suspension)	0.915	< 5.10	0.977	< 5.40	0.985	< 5.29	0.778	5.04	0.971	< 5.70	0.97	< 5.29	0.974	< 5.00	0.357	6.42	0.97	< 5.70	0.813	5.20	0.957	< 5.30	0.961	< 5.00	0.977	< 5.29
COLO-800 (melanoma, adherent)	0.905	< 5.10	0.734	5.95	0.987	< 5.29	0.952	< 4.70	0.936	< 5.70	0.974	< 5.29	0.96	< 5.00	0.773	5.22	0.956	< 5.70	0.53	6.12	0.552	6.37	0.458	6.32	0.96	< 5.29
COR-L95 (small cell lung carcinoma, adherent)	0.954	< 5.10	0.936	< 5.40	0.828	5.41	0.894	< 4.70	0.987	< 5.70	0.96	< 5.29	0.946	< 5.00	0.652	5.55	0.987	< 5.70	0.917	< 5.00	0.987	< 5.30	0.984	< 5.00	0.899	< 5.29
CW-2 (large intestine, adherent)	0.988	< 5.10	0.977	< 5.40	0.988	< 5.29	0.969	< 4.70	0.989	< 5.70	0.988	< 5.29	0.978	< 5.00	0.918	< 4.80	0.985	< 5.70	0.94	< 5.00	0.988	< 5.30	0.988	< 5.00	0.989	< 5.29
D-247MG (glioma, adherent)	0.646	5.83	0.941	< 5.40	0.907	< 5.29	0.98	< 4.70	0.98	< 5.70	0.933	< 5.29	0.979	< 5.00	0.581	5.74	0.959	< 5.70	0.767	5.29	0.899	< 5.30	0.893	< 5.00	0.862	< 5.29
D-263MG (glioma, adherent)	0.827	5.20	0.895	< 5.40	0.88	< 5.29	0.974	< 4.70	0.982	< 5.70	0.976	< 5.29	0.983	< 5.00	0.601	5.70	0.937	< 5.70	0.77	5.34	0.964	< 5.30	0.926	< 5.00	0.896	< 5.29
D-336MG (glioma, adherent)	0.495	6.32	0.864	< 5.40	0.582	6.24	0.953	< 4.70	0.945	< 5.70	0.815	5.41	0.98	< 5.00	0.563	5.80	0.937	< 5.70	0.728	5.47	0.978	< 5.30	0.972	< 5.00	0.469	6.59
DG-75 (Burkitt lymphoma, suspension)	0.85	5.21	0.951	< 5.40	0.947	< 5.29	0.965	< 4.70	0.955	< 5.70	0.945	< 5.29	0.972	< 5.00	0.495	6.01	0.848	5.82	0.777	5.39	0.969	< 5.30	0.957	< 5.00	0.933	< 5.29
DMS-114 (small cell lung carcinoma, adherent)	0.931	< 5.10	0.84	5.47	0.853	5.30	0.911	< 4.70	0.985	< 5.70	0.979	< 5.29	0.964	< 5.00	0.912	< 4.80	0.983	< 5.70	0.849	5.03	0.978	< 5.30	0.946	< 5.00	0.98	< 5.29
DND-41 (T-cell leukaemia, suspension)	0.781	5.54	0.87	5.52	0.78	5.73	0.957	< 4.70	0.983	< 5.70	0.911	< 5.29	0.983	< 5.00	0.421	6.20	0.964	< 5.70	0.73	5.59	0.989	< 5.30	0.968	< 5.00	0.968	< 5.29
